Values joined by “and” are separate entries in the source; they are usually repeats but may differ in a detail not shown here. Equal values may be shown once. Screen size: about 420,000 compounds; about 50,000 (12%) were called active. The shares of active, inactive and inconclusive entries below differ from those in the screen. The call rests on the fitted dose curve; in most records, active means well fitted inhibition curve with a large enough effect; inconclusive means small, poorly fitted or top-dose-only effect; inactive means flat fitted curve, though single readings scatter. A potency beside an inconclusive call is a rough fit, not a confirmed value.
Test: qHTS for Inhibitors of human tyrosyl-DNA phosphodiesterase 1 (TDP1): qHTS in cells in presence of CPT; further: nearly all actives have a fitted effect of over 55% in size
Settings: chicken DT40 Tdp1-/-;hTDP1 cells + 20 nM CPT, ATP luminescence, 48 h; activity change, negative = growth inhibition: at 46.2 µM (top of the series) unless noted
Method in brief: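 Chicken DT40 Tdp1-/- cells stably complemented with human TDP1 were seeded at 400 cells/well in medium containing 20 nM camptothecin, exposed to pin-transferred compounds, and grown at 37 °C for at least 48 hr. Viability was read as ATP luminescence.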
In the case of CCOC(=O)/C=C/c1ccccc1S(=O)(=O)NC(C)(C)C, the Potency is reported as inconclusive: 35.5 µM [inhibitor, single point] and inconclusive: 29.1 µM [inhibitor, single point]. With Cc1nc(C(=O)NC2CC2)sc1C1(C)CC(c2ccccc2)=NO1 (stereo unspecified) the “activity change, negative = growth inhibition” value was inactive: -15.9%. For Cc1nc2c(cc1C(=O)N/N=C/c1ccc(O)c(O)c1)c(=O)n(C)c(=O)n2C, the Potency was inconclusive: 16.4 µM [inhibitor, partial curve]. With COCCn1c(SCC(=O)NCc2ccco2)nnc1-c1c[nH]c2ccccc12 the Potency was inconclusive: 25.9 µM [inhibitor, single point]. In the case of Cn1c(=N)n(CC(=O)c2ccc(Cl)c(Cl)c2)c2ccccc21, the Potency is reported as active: 13 µM. With COc1cc(C(=O)N2CCCC(c3cc(C(=O)NCc4ccc(F)cc4)no3)C2)cc(OC)c1C (stereo unspecified) the Potency was active: 23.1 µM. For C=CCn1c(COc2ccc(Cl)cc2)nnc1SCC(=O)N/N=C/c1cccc(O)c1, the Potency was inconclusive: 20.6 µM [inhibitor, single point]. With COc1ccc(N2CCN(c3ncnc4scc(-c5ccc(C)cc5)c34)CC2)cc1 the Potency was inconclusive: 23.1 µM [inhibitor, single point]. In the case of Cc1ccc(OCC(=O)c2cc(C)n(Cc3ccco3)c2C)c([N+](=O)[O-])n1, the Potency is reported as inconclusive: 23.1 µM [inhibitor, partial curve]. For Cn1cccc1C(=O)NC(=O)CSc1cccc[n+]1[O-], the Potency was inconclusive: 29.1 µM [inhibitor, single point]. With CC1C(=O)N(Cc2cn(CCC3OCCCO3)nn2)CCS(=O)(=O)N1Cc1ccc(-c2ccccc2)cc1 (stereo unspecified) the Potency was inconclusive: 29.1 µM [inhibitor, single point]. In the case of COc1cc(C(=O)NCCC(c2ccccc2)c2ccccc2)cc(OC)c1OC, the Potency is reported as inconclusive: 20.6 µM [inhibitor, single point]. In the case of CN(C)CCN(Cc1ccco1)C(=O)c1oc2ccccc2c1NC(=O)c1ccccc1, the Potency is reported as inconclusive: 25.9 µM [inhibitor, single point]. For CC(NC(=O)CCCCCNC(=O)N1CCn2c1nc1ccccc12)c1ccccc1 (stereo unspecified), the Potency was active: 14.6 µM. In the case of Cc1ccc(C)c(NC(=O)c2cc(S(=O)(=O)N3CCCCCC3)ccc2F)c1, the Potency is reported as active: 16.4 µM. In the case of Cc1ccc(C(=O)NCC(=O)NCC(=O)OCC(=O)c2ccc(F)cc2)cc1, the “activity change, negative = growth inhibition” value is reported as inactive: 22.9%. In the case of CCC(C)[C@H](NC(=O)[C@@H]1Cc2ccccc2CN1)C(=O)Nc1ccc2c(c1)OCO2 (stereo partly specified), the Potency is reported as inconclusive: 8.2 µM [inhibitor, partial curve]. In the case of CN(C(=O)c1ccc(NC(=O)Cc2ccc(NC(=O)C3CCCN(C(=O)C4CC4)C3)cc2)cc1)C1CCCC1 (stereo unspecified), the Potency is reported as inconclusive: 20.6 µM [inhibitor, single point]. With COC(=O)[C@]12CCCCC=C1N(Cc1cccc3ccccc13)C(=O)[C@H](CC(=O)N1CCN(C(=O)C3CC3)CC1)C2 the Potency was inconclusive: 29.1 µM [inhibitor, single point]. For COc1ccc2cc(S(=O)(=O)N3CCCCC3)ccc2c1S(=O)(=O)N1CCCCC1, the Potency was active: 20.6 µM. With CCCCCCCCCCOC(=O)Cn1c(COc2ccc(Cl)cc2)[n+](C)c2ccccc21 the Potency was active: 4.11 µM. In the case of O=C(COC(=O)Cc1n[nH]c(=O)c2ccccc12)Nc1ccc(Cl)cc1F, the Potency is reported as inconclusive: 14.6 µM [inhibitor, single point]. For COc1ccc(CCCc2nnc(SCC(=O)Nc3ccc(OC)cc3)o2)cc1, the Potency was “inactive”. For S=C(c1ccc(-c2ccc(Cl)cc2)o1)N1CCCCC1, the Potency was inconclusive: 11.2 µM [inhibitor, partial curve]. For Cc1nn(-c2ccccc2)c(C)c1/C=N/n1c(-c2ccccc2Br)n[nH]c1=S, the Potency was inconclusive: 10.3 µM [inhibitor, single point]. In the case of CC(=O)N1CCCc2cc(S(=O)(=O)CCC(=O)N3CCN(c4ccccc4)CC3)ccc21, the Potency is reported as inconclusive: 25.9 µM [inhibitor, single point]. For CN(/N=C/c1cc(Br)cc(Br)c1O)c1ccccc1, the “activity change, negative = growth inhibition” value was inactive: 2.28%. In the case of O=C(Nc1nc2cc3c(cc2s1)OCCO3)c1ccco1, the Potency is reported as active: 11.6 µM. For COc1ccc(-n2nnnc2S(=O)(=O)CC(=O)N2CCCCC2)cc1, the Potency was active: 2.59 µM. In the case of O=C(CSc1nnc(NC(=O)Nc2ccccc2)s1)Nc1cccc(F)c1, the Potency is reported as inconclusive: 29.1 µM [inhibitor, single point]. For COC(=O)c1cccc2c(C(=O)O)cc(-c3ccccc3)nc12, the “activity change, negative = growth inhibition” value was inactive: 0.802%. For COc1ccc(-c2oc(NC(C)=O)c(C#N)c2-c2ccc(OC)cc2)cc1, the Potency was inconclusive: 16.4 µM [inhibitor, single point]. For Cc1ccc2c(=O)c(C(=O)c3cccc(Cl)c3)cn(CC(=O)Nc3ccc4c(c3)OCCO4)c2n1, the Potency was inconclusive: 25.9 µM [inhibitor, single point]. In the case of [O-][n+]1c2ccccc2c2n1CCCN=C2c1ccc(Cl)cc1, the Potency is reported as inconclusive: 18.4 µM [inhibitor, partial curve]. For COc1ccc(CCNC(=O)c2cccc(S(=O)(=O)N3CCCCCC3)c2)cc1, the Potency was inconclusive: 29.1 µM [inhibitor, single point]. In the case of CC(=O)c1c(C)[nH]c(C(=O)Nc2cccc(S(=O)(=O)N3CCOCC3)c2)c1C, the Potency is reported as inconclusive: 16.4 µM [inhibitor, single point]. In the case of CCN(CC)c1ccc(C=Nc2ccccc2)c(O)c1, the Potency is reported as inconclusive: 29.1 µM [inhibitor, single point]. For Nc1nc(NCc2ccccc2)nc(NCCO)c1[N+](=O)[O-], the Potency was inconclusive: 14.6 µM [inhibitor, single point]. For Cn1c(=O)cc(OCC(=O)N2CCN(c3cccc(C(F)(F)F)c3)CC2)c2ccccc21, the Potency was active: 20.6 µM. For CN1C(=O)Cc2cc(S(=O)(=O)CCC(=O)Nc3ccc(F)c(Cl)c3)ccc21, the Potency was inconclusive: 25.9 µM [inhibitor, single point]. With CCOC(=O)c1ccccc1NC(=O)CSc1nccn1C the “activity change, negative = growth inhibition” value was inactive: -9.31%. In the case of COc1ccccc1N1C(=O)S/C(=C\c2cc(C)n(C)c2C)C1=O, the Potency is reported as inconclusive: 16.4 µM [inhibitor, partial curve]. For CCCn1c(N)c(C(=O)CN(C)CC(=O)Nc2cccc(F)c2)c(=O)[nH]c1=O, the Potency was inconclusive: 25.9 µM [inhibitor, single point]. With O=C1c2ccccc2C(=O)N1CCc1c(-c2ccccc2)[nH]c2ccccc12 the Potency was inconclusive: 18.4 µM [inhibitor, single point]. For CN(Cc1ccccc1)S(=O)(=O)c1ccc(NC(=O)C2CCCO2)cc1 (stereo unspecified), the Potency was inconclusive: 18.4 µM [inhibitor, single point]. For Cc1cc(NC(=O)c2ccccc2F)on1, the Potency was active: 13 µM. In the case of O=C(NCc1ccccc1)C(c1cc2ccccc2o1)n1c(=O)c(-c2cc3ccccc3[nH]2)nc2ccccc21 (stereo unspecified), the Potency is reported as inconclusive: 23.1 µM [inhibitor, single point]. In the case of Cc1cccc(C(=O)Oc2ccc3ccc(O)cc3c2)c1, the Potency is reported as inconclusive: 2.31 µM [inhibitor, full curve, poor fit]. With C=CC[C@@H](Cc1ccc(F)cc1)C(=O)OC[C@H]1CCCN1C(=O)[C@H](CC=C)CC(=O)NCCO the Potency was inconclusive: 8.2 µM [inhibitor, partial curve]. With CCOc1ccccc1N1CCN(Cc2ccc(OC)c(OC)c2OC)CC1 the Potency was inconclusive: 16.4 µM [inhibitor, partial curve, poor fit]. With Cc1ccc(C)c(Nc2ncccc2C(=O)NCc2cccs2)c1 the Potency was inconclusive: 29.1 µM [inhibitor, single point]. With CCOC(=O)c1ccc(NC(=O)c2ccc(CO)c(C(=O)NC3CCN(C(=O)OCC)CC3)c2)cc1 the Potency was inconclusive: 7.31 µM [inhibitor, partial curve]. For O=C(Nc1ccc2nc(-c3ccccn3)c(-c3ccccn3)nc2c1)N1CCCC1, the Potency was inconclusive: 35.5 µM [inhibitor, single point]. In the case of COCCNC(=O)c1cc(S(=O)(=O)N(C)c2ccccc2OC)ccc1C, the “activity change, negative = growth inhibition” value is reported as inactive: -17.5%. For CCC(C)[C@H](NC(=O)C1CC(=O)N(c2ccc(OC)cc2)C1)C(=O)NC1CCCC1 (stereo partly specified), the “activity change, negative = growth inhibition” value was inactive: -9.49%. In the case of CCc1ccc2nc(NC(=O)CCCc3cccs3)sc2c1, the Potency is reported as inconclusive: 29.1 µM [inhibitor, single point]. For CCOC(=O)c1sc2nc(N3CCOCC3)c3c(c2c1N)CCC3, the “activity change, negative = growth inhibition” value was inactive: -27.5%. In the case of C=CCn1c(=O)c2ccccc2n2c(SCc3nc(N)nc(Nc4ccccc4C)n3)nnc12, the Potency is reported as inconclusive: 20.6 µM [inhibitor, partial curve, poor fit]. In the case of CCCC(=O)Nc1ccc(-c2nc3ncccc3o2)cc1C, the “activity change, negative = growth inhibition” value is reported as inactive: -16.6%. In the case of Fc1ccc(-c2csc3ncnc(Nc4ccc(N5CCOCC5)cc4)c23)cc1, the Potency is reported as active: 14.6 µM. In the case of CC(C)c1ccc(CNc2ccc(N3CCOCC3)cc2)cc1, the “activity change, negative = growth inhibition” value is reported as inactive: -27.2%. With COc1ccc(C2CC(O)(c3ccccc3)Oc3cc(OC)ccc32)cc1 (stereo unspecified) the Potency was inconclusive: 29.1 µM [inhibitor, single point]. In the case of CSc1ccc(CNC(=O)C2CCC(=O)N(CC3CCCCC3)C2)cc1 (stereo unspecified), the Potency is reported as inconclusive: 29.1 µM [inhibitor, single point]. In the case of Cn1c(-c2ccc(F)cc2)cnc1NCc1ccccc1, the Potency is reported as inconclusive: 18.4 µM [inhibitor, single point]. With CCc1ccccc1Nc1cc(C(=O)NC(C)c2ccccc2)c2ccccc2n1 (stereo unspecified) the Potency was active: 29.1 µM. In the case of COc1cc(C2c3c(-c4cc(C)ccc4O)n[nH]c3C(=O)N2CCCO)ccc1OCCC(C)C (stereo unspecified), the Potency is reported as inconclusive: 25.9 µM [inhibitor, single point].

From PubChem BioAssay AID686979 (National Center for Advancing Translational Sciences (NCATS), 2013)
On the % scale 0 is the no-effect control and ±100 the full control effect; potency means the concentration at half of the fitted maximal effect; tags describe the fitted curve by direction and shape.
